Where “and” joins values, the source holds several entries; their conditions need not be identical. Equal values may be shown once. Out of some 48,000 compounds screened, about 1,200 (2.5%) were called active. Inconclusive results (about 2%) are left out.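 Rule for the calls: active = activation of at least 60% and not above a set upper limit (about 1 call in 100 departs from these limits); inconclusive = activation of 40% to 60%, or above that upper limit; inactive = activation under 40%.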 The list shows a part of the results.
What follows are molecules tested against Probable G-protein coupled receptor 32 (Homo sapiens) (UniProt O75388) (assay: qHTS for Agonists of Human Resolvin D1 Receptor DRV1). Details: CHO-K1 GPR32 beta-arrestin PathHunter luminescence, 90 min; at 76.9 µM; active compounds read high; zero percent set by DMSO-only wells.
UniProt O75388, sequence (O75388 whole entry, looked up): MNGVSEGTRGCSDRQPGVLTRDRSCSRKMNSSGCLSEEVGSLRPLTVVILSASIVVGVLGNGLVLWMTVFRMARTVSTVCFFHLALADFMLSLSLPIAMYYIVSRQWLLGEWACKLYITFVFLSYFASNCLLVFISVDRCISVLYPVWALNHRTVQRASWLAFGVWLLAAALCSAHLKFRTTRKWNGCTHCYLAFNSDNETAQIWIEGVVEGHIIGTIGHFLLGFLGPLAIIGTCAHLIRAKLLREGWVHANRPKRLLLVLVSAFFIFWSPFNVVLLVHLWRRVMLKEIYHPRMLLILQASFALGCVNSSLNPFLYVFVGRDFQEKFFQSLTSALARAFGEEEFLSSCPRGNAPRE
Method in brief: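 Using DMSO wells as EC0, agonist-induced signal was taken as chemiluminescence from beta-Gal reconstituted upon beta-arrestin recruitment to GPR32 in CHO-K1 cells after 90 min compound treatment.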
Note: 0% is about no effect.

| SMILES | activation |
| --- | --- |
| CCOC(=O)C1CCN(C(c2ccc(SC)cc2)c2c(O)cc(C)n(Cc3ccco3)c2=O)CC1 (stereo not drawn) | inactive: -15.2% |
| CCc1cccc(C)c1NC(=O)Cn1cnc2c1c(=O)n(C)c(=O)n2C | inactive: -11.4% |
| Cc1ccccc1-n1nc(CO)c(C(=O)NCc2cccnc2)n1 | inactive: -12.3% |
| COc1cc(C2NC(=O)c3c(sc4c3CCN(C)C4)N2)cc(Br)c1OC(=O)c1ccc(C)cc1 (stereo not drawn) | inactive: 37.2% |
| COCCNC(=O)Nc1cc(C(=O)NCc2ccc(C(C)C)cc2)ccc1N1CCCC1 | inactive: -25.3% |
| CCc1ccc(CNC(=O)C(C)n2ccc3cc(S(=O)(=O)N4CCCCCC4)ccc32)cc1 (stereo not drawn) | inactive: 16.5% |
| COc1ccc(N2CCN(C(=O)CCn3c(=O)[nH]c4cc(OC)c(OC)cc4c3=O)CC2)cc1 | inactive: 13.1% |
| COC(=O)c1c(NC(=O)CCCOc2ccc(C(C)(C)C)cc2)sc2c1C(C(=O)OC)CC2 (stereo not drawn) | inactive: -24.4% |
| COc1ccccc1N1CCN(c2ncnc3onc(-c4ccc(F)cc4)c23)CC1 | inactive: -10.8% |
| Cc1ccc(NC(=O)C2CCN(S(=O)(=O)c3ccc4[nH]c5c(c4c3)CCCCC5)CC2)cc1 | inactive: 4.04% |
| COc1cccc(C(=O)NCCc2csc(-c3ccc(Cl)cc3)n2)c1 | inactive: 47.2% |
| Cc1cccc(NC(=O)CCS(=O)(=O)c2cccc3nsnc23)c1C | inactive: -14.8% |
| O=C(NCc1cccc(F)c1)C1CCCN(C(=O)N2CCOc3ccccc32)C1 (stereo not drawn) | inactive: 4.19% |
| CCOC(=O)CSC1=Nc2ccccc2C2=NC(CCC(=O)NCc3ccc(F)cc3)C(=O)N12 (stereo not drawn) | inactive: 11.3% |
| CC1CN(C(=O)N2CCC(C(=O)NCc3cccs3)CC2)c2cc(Cl)ccc2O1 (stereo not drawn) | inactive: 3.23% |
| Cc1ccc(C)c(NC(=O)C2CCCN(c3nc4ccccc4s3)C2)c1 (stereo not drawn) | inactive: 0.53% |
| Cc1c2cnn(CC(=O)N3CCCCC3)c(=O)c2c(C)n1Cc1ccc(F)cc1 | inactive: -4.28% |
| COc1cccc(CNC(=O)C(CC(C)C)NS(=O)(=O)c2ccc3c(c2)oc(=O)n3C)c1 (stereo not drawn) | inactive: -1.59% |
| CCC1CCCCN1CCCNC(=O)c1[nH]c2ccccc2c1Sc1ccc(Cl)cc1 (stereo not drawn) | inactive: -5.37% |
| CCOc1ccc(C(c2c(O)cc(C)n(CCOC)c2=O)N2CCN(c3ccccc3)CC2)cc1 (stereo not drawn) | inactive: -11.1% |
| Cc1ccc2c(c1)C(=O)OC(C(=O)Nc1ncc(Cc3ccc(C(C)C)cc3)s1)C2 (stereo not drawn) | inactive: 9.82% |

| SMILES | activation |
| --- | --- |
| COc1ccc(-c2noc(N3CCC(C(=O)Nc4ccc(F)cc4Cl)CC3)n2)cc1 | inactive: -9.68% |
| CCN(C(=O)CCS(=O)(=O)c1cc2[nH]c(=O)c(=O)[nH]c2cc1C)c1ccccc1 | inactive: -1.03% |
| Cc1ccc(Cl)cc1NS(=O)(=O)c1ccc2oc(=O)c3ncn(C)c3c2c1 | inactive: -32.7% |
| Cc1ccc(-c2cn3nc(N4CCCC(C(=O)Nc5ccc(F)cc5)C4)sc3n2)cc1 (stereo not drawn) | inactive: -9.23% |
| Cc1ccc2sc(N3CCN(C(=O)CCS(=O)(=O)c4ccc(Cl)cc4)CC3)nc2c1C | inactive: 8.34% |
| O=C(NCCc1ccc(F)cc1)C(=O)NCC(c1cccs1)S(=O)(=O)c1ccc(F)cc1 (stereo not drawn) | inactive: 36.5% |
| Cc1ccc(N(CC(=O)N2CCN(c3ccc(Cl)cc3)CC2)S(=O)(=O)c2c(C)nn(C)c2C)cc1 | inactive: -12.7% |
| CCC(Sc1nc2ncccc2[nH]1)C(=O)Nc1cccc(OC)c1 (stereo not drawn) | inactive: -3.69% |
| CCCN(CCC)C(=O)Cn1c(=O)n(-c2cccc(OC)c2)c(=O)c2c(C)c(C(=O)N(C)C)sc21 | inactive: -10.2% |
| COCCCn1c(=O)c2sccc2n2c(CCCC(=O)Nc3cc(C)cc(C)c3)nnc12 | inactive: -14.3% |
| Cc1ccc(NC(=O)C(Cc2ccccc2)n2cccc2)cc1 (stereo not drawn) | inactive: -8.49% |
| COc1ccccc1OCCCSc1nc(-c2ccc(C(C)(C)C)cc2)nc2cc(=O)[nH]n12 | active: 75.1% |
| CN1CCc2c(sc3c2C(=O)NC(c2ccc(OC(=O)c4ccccc4)cc2)N3)C1 (stereo not drawn) | inactive: -14.3% |
| COc1ccc(OC)c(NCc2cccn2-c2nnc(N3CCCCC3)s2)c1 | inactive: -12.2% |
| Cc1ccc(C)c(S(=O)(=O)c2cn(C)c3cc(N4CCCCC4C)c(F)cc3c2=O)c1 (stereo not drawn) | inactive: -24.9% |
| CC(C)(Oc1ccc(CCNC(=O)c2ccc(Cl)cc2)cc1)C(=O)O | inactive: 8.88% and inactive: 1.57% |
| OCCN1CCN(CCCN2c3ccccc3Sc3ccc(C(F)(F)F)cc32)CC1 | inactive: 46.6% and inactive: -14.4% |
| COc1ccc(CNC(=O)Cn2ncc3c4ccccc4n(Cc4cccc(Cl)c4)c3c2=O)cc1 | inactive: -12.7% |
| c1ccc(CC2=NCCN2)cc1 | inactive: -3.87% |
| COc1ccc(C)cc1NC(=O)c1ccc2c(=O)n3c(nc2c1)CCCCC3 | inactive: -16.3% |
| Cn1c(=O)c2c(-c3ccc(Cl)cc3)n(Cc3ccc(Cl)cc3)cc2n(C)c1=O | inactive: -7.14% |

| SMILES | activation |
| --- | --- |
| COc1ccc(C(=O)NCCn2cc(SCC(=O)Nc3ccc(C)cc3)c3ccccc32)cc1 | inactive: 3.09% |
| Cc1ccc(CNC(=O)NCc2noc3ccc(C)cc23)cc1 | inactive: -9.99% |
| NCCCCC(=O)O | inactive: 6.99% |
| Cc1cccc(-c2nc3c4ccccc4nc(N4CCN(c5ccccc5F)CC4)n3n2)c1 | inactive: 0.0961% |
| COCCOC(=O)C1=C(C)NC(=O)NC1c1cn(-c2ccccc2)nc1-c1ccccc1 (stereo not drawn) | inactive: -8.26% |
| CC1Cc2cc(S(=O)(=O)CCC(=O)NCc3ccc(Cl)cc3)ccc2N1C(=O)C1CC1 (stereo not drawn) | inactive: -0.358% |
| O=C(O)CCc1nc(-c2ccccc2)c(-c2ccccc2)o1 | inactive: 3.05% and inactive: -8.42% |
| COc1ccc(OC)c(CCNC(=O)CCc2cn(Cc3cc(C)ccc3C)c3ccccc23)c1 | inactive: -28.3% |
| Cc1ccc(Cl)cc1NS(=O)(=O)c1ccc2c(c1)NC(=O)CCS2 | active: 93.9% |
| O=C(Cn1c(=O)c2cccn2c2ccc(F)cc21)N1CCN(c2ccccc2F)CC1 | inactive: -18.8% |
| COc1cccc(C2NC(=O)c3n[nH]c(-c4cccs4)c32)c1 (stereo not drawn) | inactive: 18.1% |
| Cc1ccc(C)c(NC(=O)Cn2nnc(C(=O)NCc3ccccc3Cl)c2N)c1 | inactive: 24.3% |
| COc1ccc(C(=O)N(Cc2cc(OC)c(OC)c(OC)c2)c2ccccn2)cc1 | inactive: -6.46% |
| O=C(Cn1c(=O)nc(-c2ccccc2)c2ccccc21)NCCc1ccc(Cl)cc1 | inactive: -7.28% |
| CN1CCN(C(CNC(=O)c2ccccc2F)c2ccc3c(c2)OCO3)CC1 (stereo not drawn) | inactive: 4.53% |
| COc1ccc(Br)cc1CNC(=O)c1cnc2sc(N3CCCC3)nn2c1=O | inactive: -1.28% |
| COc1cc(NC(=O)NCC2CCN(Cc3ccccc3Cl)CC2)cc(OC)c1OC | inactive: 3.27% |
| COc1ccc(-c2cn3nc(N4CCCC(C(=O)Nc5cc(C)ccc5C)C4)sc3n2)cc1 (stereo not drawn) | inactive: -16.3% |
| COc1ccc(NC(=O)c2sc3nc(-c4cc5ccc(OC)cc5oc4=O)[nH]c(=O)c3c2C)cc1 | inactive: 1.24% |
| CCCCN(CC)CCNC(=O)CCn1cnc2onc(-c3ccc(F)cc3)c2c1=O | inactive: 25.9% |
| Cc1cccc(-n2cc(-c3ccccc3)c3c(N4CCC(C)CC4)ncnc32)c1 | inactive: -32.1% |

| SMILES | activation |
| --- | --- |
| CCc1ccccc1NC(=O)C1CCN(S(=O)(=O)c2ccccc2)CC1 | inactive: 25.7% |
| O=C(NC1CCCC1)c1ccc(CSc2nc3ccncc3n2Cc2cccc(F)c2)cc1 | inactive: -17.2% |
| O=C1c2ccccc2C(=O)C1c1ccccc1 | inactive: -8.08% |
| CCOc1cc(C(=O)NCc2ccc3c(c2)CCN3C(=O)c2ccc(F)cc2)cc(OCC)c1OCC | inactive: -19.1% |
| O=C(Cn1ccnc1[N+](=O)[O-])NCc1ccccc1 | inactive: 3.09% |
| CCCCOc1ccc(C(=O)Nc2ccc3oc(-c4cccnc4)nc3c2)cc1 | inactive: -3.62% |
| COc1ccc(CNC(=O)C(C)Sc2nc(-c3ccccc3)cc(C(F)(F)F)n2)cc1 (stereo not drawn) | inactive: -5.73% |
| O=C(COc1ccccc1Cl)OCc1cc(=O)n2nc(C3CCCCC3)sc2n1 | inactive: -9.5% |
| CC1Cc2cc(S(=O)(=O)NCCc3ccc(Cl)cc3)ccc2N1C(=O)C1CCC1 (stereo not drawn) | inactive: -4.5% |
| COc1ccccc1Cn1cc(C(=O)c2ccc(Cl)cc2)c(=O)c2ccccc21 | inactive: 34.9% |
| Cc1c2cnn(CC(=O)NCC(C)c3ccccc3)c(=O)c2c(C)n1Cc1cccc(Cl)c1 (stereo not drawn) | inactive: -3.86% |
| Cc1cccc(S(=O)(=O)c2cn(Cc3ccccc3)c3cc(N4CCOCC4)c(F)cc3c2=O)c1 | inactive: -10.5% |
| CCc1ccc(C(=O)c2cnc3ccc(F)cc3c2S(=O)(=O)c2ccccc2)cc1 | inactive: -24.1% |
| CC(C)OCCCNC(=O)c1cn(C)c2ccc(S(=O)(=O)N3CCCCCC3)cc2c1=O | inactive: 2.82% |
| Cc1cccc(C(=O)Nc2ccc(-c3nc4ncccc4o3)cc2C)c1 | inactive: -7.09% |
| CCn1ccc2cc(S(=O)(=O)N3CCC(C(=O)NCCc4ccccc4Cl)CC3)ccc21 | inactive: -8.09% |
| Cc1oc2ccc(O)c(CN3CCCC3)c2c1C(=O)Nc1ccccc1 | inactive: -14.4% |
| Cc1cccc(N2CCN(C(=O)C3CCCN(S(=O)(=O)c4ccc5c(c4)oc(=O)n5C)C3)CC2)c1C (stereo not drawn) | inactive: 6.14% |
| CCc1cccc2c(-c3ccccc3)nc(SCC(=O)Nc3ccccc3OC)nc12 | inactive: 1.25% |
| COc1ccccc1NC(=O)C(C)Sc1nnc2ccc3ccccc3n12 (stereo not drawn) | inactive: 3.64% |

Reference: PubChem BioAssay AID1346428 (National Center for Advancing Translational Sciences (NCATS), 2018)
